Reference: paper PMC12136788
The other results are listed elsewhere or left out.

B1: chr1:235113809:235113910:-|CDS|ENSG00000173726|msi1_unk|total|mutant (ssRNA)
RNA: GGGAGUUCUACAGUCCGACGAUCAGGCUUUUCAGGUUACAUGUAAUUUUAUGUAAAUCUUACAGGUGAAUAUGAGAAGGGCGCCGACCAUCUGACAAAUGCAAUUGCUGUGUGUGGACAGCCACAGCAGUUACUGCAGGUCUUCAACAGAGGAUUGAGCAUCA
B2: chr17:73284618:73284719:-|3pUTR|ENSG00000179604|msi1|total|mutant (ssRNA)
RNA: GGGAGUUCUACAGUCCGACGAUCGGGCACUCGCUCAGUCCCCCGGGGCUUGUUUGUUCUUUAUUAUUGUGUUUAAAUCCUUACCGAGCAAUAUCAGGAUGGUGUUAACCGGUCUGCCUCAGAAUGAGAAUCAAUCCUUUCCGACAACAGAGGAUUGAGCAUCA
B3: chr4:38700566:38700667:+|3pUTR|ENSG00000109787|unk|total|mutant (ssRNA)
RNA: GGGAGUUCUACAGUCCGACGAUCUACAAAGCCAUCUUUACAUGCAUUAAACGAGGGCUACAACAAUAUUGUUUUACAAAUACCCGCACUUUUUUUUCUGUUAUGUACUCCGUGUCCGAGGGUCAAAAUAAUCUUUCUGCUCCGCAACAGAGGAUUGAGCAUCA
B4: chr20:62294722:62294823:+|3pUTR|ENSG00000130703|unk|FALSE|unique (ssRNA)
RNA: GGGAGUUCUACAGUCCGACGAUCCGCACACCGCGUCCGUGUCUCCAGGGGGUUCCUUUCUUCUCACACGUCGCGUGUACCCAUAGCACUCUUGUGUUUCUGUUUUUCCCAGUAUGCAUGUUUAAAAUAGAAGUGACAAGAAUCCAACAGAGGAUUGAGCAUCA
B5: chr21:36416827:36416928:+|3pUTR|ENSG00000159259|unk|total|mutant (ssRNA)
RNA: GGGAGUUCUACAGUCCGACGAUCAACUUUGGAAGGCCGUUGUGUUUGUUUUCUGAUUUUAAAGGUGACGAUGCUUAUUCUUUCCGUAACUAAGUGAAGUGAAAAAGAUGGGUAUCACCCAUCAUCUUCCCACCAGAAGUAACCCAACAGAGGAUUGAGCAUCA
B6: chr6:157944353:157944454:+|3pUTR|ENSG00000130340|unk|total|mutant (ssRNA)
RNA: GGGAGUUCUACAGUCCGACGAUCAGUAAUUCUCCCCACUUGAUUUUUCUUCUAUAAAAUCCCACCGAACAAUGUUUAUGCUACCGCCAUUUAAUAUAUGUACAAAUUGUAAAGAAUAUGUAUAAAUGUUUUACACGAAUGUAACAACAGAGGAUUGAGCAUCA
B7: chr1:40073325:40073426:-|3pUTR|ENSG00000131238|msi1|FALSE|unique (ssRNA)
RNA: GGGAGUUCUACAGUCCGACGAUCGAGGGAAGUAGCACCCAAAUUAAGUUGCUUAAGAGAGGAAAUGUACAUCUUGUAUAACUUAGGGAGCGAAGAAAAUGUAGGCGCGAAAGUGAAAAGUGAGGCAGCUAGUUCUUCCUAUUCCAACAGAGGAUUGAGCAUCA
B8: chr8:65724783:65724899:-|CDS|ENSG00000205268|unk|total|mutant (ssRNA)
RNA: GGGAGUUCUACAGUCCGACGAUCACCGGUGCUCUGAUACCCGCCACAGACAUCAGUCGCCAGAAUGAGUAUCUGUCUUUGUUCCGGUCCCAUUUGGACCGAGGUGAUUUAUGCCCCGAAGACACCAGACACAGACAUUUGGUUCAACAGAGGAUUGAGCAUCA
B9: chr2:128192346:128192447:+|3pUTR|ENSG00000136731|msi1|FALSE|unique (ssRNA)
RNA: GGGAGUUCUACAGUCCGACGAUCAGAAAAUGAUGUUACCACUAAAAUAUUUUCUCCAAGAAGGCAUACUGUAACAGAAAAGAUAGGUAAGAUAUUUUUUUCCCAAGAAGUAAGAAUUGAUUGUGCUGAAUGUUCAAACUCUGGCAACAGAGGAUUGAGCAUCA
B10: chr7:20410991:20411126:+|3pUTR|ENSG00000105855|msi1|total|mutant (ssRNA)
RNA: GGGAGUUCUACAGUCCGACGAUCAAAUUCUGCCUCAAGCAAAGUACCACAUUUUGAAUGUUUUCUCCGAUUUUGAUUGCAAGCCGAUAUCAGCAUUUUUUAAAUGAAAAGCUAUAUUAUCUUCUCCCUUCAAGGCAGCCUAAGCAACAGAGGAUUGAGCAUCA
B11: chr19:21059139:21059240:+|3pUTR|ENSG00000118620|unk|total|mutant (ssRNA)
RNA: GGGAGUUCUACAGUCCGACGAUCGUAAAAAUGAAAAUAUUUAAUCCAAAAUUAAGUCUAUGUAAAUAUCAGAGAAUUUACUGCCGAAAUAUAUAAGGCACUGAGACUUCAGAUAUUAUACUAAAUCAGAGUGCUGAGUACCGACAACAGAGGAUUGAGCAUCA
B12: chr12:39619279:39619382:-|CDS|ENSG00000173208|unk|FALSE|unique (ssRNA)
RNA: GGGAGUUCUACAGUCCGACGAUCCGAGACCAUUUGUGAAAAACCUUCGCCUGGAGUGAAUGCAGAUUUCUUCAAACAGCUACUAGAACUUCGGAAAAUUUUGUUUCCAAAACUUGUGACCACUGAAACAGGGUGGCUCUGCCUCAACAGAGGAUUGAGCAUCA
B13: chr12:6238111:6238124:+|3pUTR|ENSG00000010278|msi1_unk|FALSE|overlapping (ssRNA)
RNA: GGGAGUUCUACAGUCCGACGAUCUGUUUGUUUUUGCUUGUUAUAUUAAGCAGAAAUCCUGCAAUGAAAGGUACUAUAUUUGCUAGACUCUAGACAAGAUAUUGUACAUAAAAGAAUUUUUUUGUCUUUAAAUAGAUACAAAUGCAACAGAGGAUUGAGCAUCA
B14: chr17:74695098:74695251:-|CDS|ENSG00000186074|control|control|control (ssRNA)
RNA: GGGAGUUCUACAGUCCGACGAUCUCUCUGACCUUGGGUGCUGAGGAUCAGGAACCGACCUACUGCAACAUGGGCCACCUCAGUAGCCACCUCCCCGGCAGGGGCCCUGAGGAGCCCACGGAAUACAGCACCAUCAGCAGGCCUCAACAGAGGAUUGAGCAUCA

Target: MSI1 full-length (mouse, UniProt Q61474 1-362)
Sequence of UniProt Q61474 (Q61474 whole entry): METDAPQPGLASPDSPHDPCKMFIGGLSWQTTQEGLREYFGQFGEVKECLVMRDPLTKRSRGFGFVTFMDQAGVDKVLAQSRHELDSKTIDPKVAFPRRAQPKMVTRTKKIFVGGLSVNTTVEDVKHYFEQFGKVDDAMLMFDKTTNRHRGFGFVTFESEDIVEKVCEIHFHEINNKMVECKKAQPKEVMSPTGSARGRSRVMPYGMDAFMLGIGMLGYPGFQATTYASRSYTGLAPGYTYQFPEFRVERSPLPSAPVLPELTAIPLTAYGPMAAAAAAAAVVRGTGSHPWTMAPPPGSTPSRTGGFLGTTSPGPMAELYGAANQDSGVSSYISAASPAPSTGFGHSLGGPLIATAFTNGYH
Test: nsRBNS (natural sequence RNA bind-n-seq); RBNS binding buffer (assumed for nsRBNS): 25 mM Tris pH 7.5, 150 mM KCl, 3 mM MgCl2, 0.01% Triton X-100, 500 ug/ml BSA, 20 U/ml SUPERase-In, 4 C; UNK is unkempt and MSI1 is Musashi-1; names of the RNAs are library labels; protein concentration not given here; high values mean tight binding

Binder	binding signal [enrichment R]
B1	0.246
B2	0.567
B3	0.397
B4	0.55
B5	0.171
B6	0.968
B7	0.871
B8	0.342
B9	0.593
B10	0.319
B11	4.16
B12	0.308
B13	1.03
B14	0.377
